Out of some 52,000 compounds screened, about 4,300 (8.3%) were called active. Rule as the data show it: active = survival mostly below about 52% (no sharp cut-off); inactive = mostly above about 56%. The list shows a part of the results.
tested on: DeltatarO mutant; assay: S. aureus survival, RN4220 and DeltatarO strains – OD600, teichoic acid synthesis inhibitors, primary screen (AID 463173); conditions: S. aureus RN4220 wild type/DeltatarO growth, OD600, 18 h, stronger effect = lower value, screened at 18.75 µg/mL (by protocol)

Structure (SMILES) | survival
Cc1ccc(S(=O)(=O)N(CC(=O)Nc2ccc3c(c2)OCO3)c2ccc(C)c(Cl)c2)cc1 | inactive: 71%
COc1ccc(CN(Cc2nc3ccccc3c(=O)[nH]2)C(=O)Nc2ccccc2)cc1 | inactive: 68%
Cc1cn2c(=O)cc(COc3ccccc3NC(=O)c3ccc(Cl)cc3)nc2s1 | inactive: 91%
CCOC(=O)c1ccc(NC(=O)CSc2nc3c([nH]c4ccccc43)c(=O)n2C)cc1 | inactive: 83%
Cc1ccc(NC(=O)C2CCC(CNS(=O)(=O)c3ccc4c(c3)CCCC(=O)N4)CC2)c(C)c1 (centres undefined) | inactive: 86%
Cc1ccccc1-c1noc(-c2cc(-c3ccc(F)cc3)n[nH]2)n1 | inactive: 75%
O=C(/C=C/c1ccco1)NC(=S)NC1CCCCC1 | inactive: 115%
CCCCc1nc2ccccc2n1CC(=O)N(COCC)c1c(C)cccc1CC | active: -12%
Cc1ccc2oc(-c3ccc(Cl)c(NC(=O)c4ccc(OC(C)C)cc4)c3)nc2c1 | inactive: 58%
O=C(O)CSc1nnc(-c2ccc(O)cc2)o1 | inactive: 74%
CCOC(=O)c1noc2nc(C)n(CC(=O)Nc3ccc(OC)c(Cl)c3)c(=O)c12 | inactive: 73%
Cc1cc(N2CCC(C(=O)Nc3ccc(Cl)cc3)CC2)n2nc(C)c(-c3ccc(Cl)cc3)c2n1 | inactive: 92%
Cc1ccc(CC(=O)Nc2c(C(=O)N3CCN(c4ccccc4)CC3)oc3ccccc23)cc1 | inactive: 69%
Cn1c(=O)[nH]c(=O)c2c1nc(NNC=O)n2Cc1ccc(Cl)cc1 | inactive: 80%
CCOc1ccc(-c2cc(C(=O)NCCc3ccccc3)c3c(-c4ccc(C)cc4)[nH]nc3n2)cc1 | inactive: 94%
Cc1cc(C)c2c(=O)c3c(oc2c1)C(=O)N(Cc1ccco1)C3c1ccc(F)cc1 (centres undefined) | inactive: 53%
Cc1ccc(Oc2nc3ccccn3c(=O)c2/C=C(\C#N)c2nc3ccccc3s2)c(C)c1 | inactive: 41%
CCN(CC)c1ccc(NS(=O)(=O)c2ccc(-c3coc(C)n3)cc2)c(C)c1 | inactive: 90%
Cc1nn(C)c2c1c(C(F)(F)F)cc(=O)n2CC(=O)N1CCN(c2ccccc2F)CC1 | inactive: 90%
Cc1ccc(C2C(C#N)=C(N)N(c3cccnc3)C3=C2C(=O)CCC3)s1 (centres undefined) | inactive: 83%
CC(=O)N1CCc2c(sc3c2c(=O)n(-c2cccc(Cl)c2)c(=O)n3Cc2ccc(F)cc2Cl)C1 | inactive: 85%
O=C(NCc1ccc2c(c1)CCN2C(=O)c1ccc(Cl)cc1)c1ccco1 | inactive: 80%
CCOC(=O)c1c(NC(=O)/C=C/c2ccc(OCC)cc2)sc2c1CCCC2 | active: 36%

Structure (SMILES) | survival
O=C(Cn1c(=O)n(-c2ccccc2)c(=O)c2c3c(sc21)CCCC3)Nc1ccccc1 | inactive: 118%
Cc1cc(-c2ccc(C)c(S(=O)(=O)N3c4ccccc4CC3C)c2)on1 (centres undefined) | inactive: 92%
CCc1c(C)nc2nncn2c1NCc1ccc(OC)cc1 | inactive: 85%
Cc1[nH]c2ccc(CNS(=O)(=O)c3ccc(S(=O)(=O)N4CCOCC4)cc3)cc2c1C | inactive: 91%
Cc1cc2c(cc3c(=O)n(CC(=O)NCc4ccccc4Br)ncn32)s1 | inactive: 72%
Cc1ccc(Cc2c(C)nc3c(-c4ccccc4)c(C)[nH]n3c2=O)cc1 | active: 0%
Cc1ccc(-n2nc(C)c3c(C(=O)O)cc(C)nc32)cc1 | inactive: 56%
Oc1ccccc1C1NN=C(c2ccccc2)S1 (centres undefined) | inactive: 77%
S=c1[nH]c2ccccc2n1C1CCCCC1 | inactive: 94%
CCOC(=O)CSc1nnc2n(-c3ccccc3)c(=O)c3c4c(sc3n12)COC(C(C)C)C4 (centres undefined) | inactive: 74%
CS(=O)(=O)c1ccc(-c2nnn(CC(=O)NC3CCCC3)n2)cc1 | inactive: 74%
CCCCN(CC)CCNC(=O)C1CCN(c2nnc(C)c3c(C)n(-c4ccc(C)cc4)nc23)CC1 | inactive: 67%
Cc1noc2ncnc(N3CCN(c4ccccc4F)CC3)c12 | inactive: 84%
Cc1cccc(CSc2nc3cccnc3n2Cc2ccc(C(=O)NCc3ccco3)cc2)c1 | inactive: 73%
COc1ccc(CN(Cc2ccco2)c2cnc(S(C)(=O)=O)nc2C(=O)Nc2ccc(C)c(C)c2)cc1 | active: 44%
COC(=O)c1ccc(C(=O)Nc2ccc(-c3nc4cc(NC(=O)c5ccc(C(=O)OC)cc5)ccc4o3)cc2)cc1 | inactive: 60%
CCSc1ncc(Cl)c(C(=O)Nc2ccc(S(=O)(=O)Nc3nccc(C)n3)cc2)n1 | inactive: 95%
Cc1ccc(Cl)cc1NC(=O)Cn1cc2c(n1)CCCCC2 | inactive: 68%
Cc1cccc(C)c1OCCn1c(C2CC(=O)N(Cc3ccc(F)cc3)C2)nc2ccccc21 (centres undefined) | active: 4%
CC(CNC(=O)c1ccc2c(c1)nc1n2CCOC1)c1ccccc1 (centres undefined) | inactive: 72%
CC(C)NC(=O)CSc1nc2ccccc2c(=O)n1Cc1ccc(C(=O)NC(C)C)cc1 | inactive: 105%
O=C(CCS(=O)(=O)c1cccc2nonc12)Nc1cccc(F)c1 | inactive: 67%
O=S1(=O)C=C(Sc2nnnn2-c2ccccc2)c2ccccc21 | active: 4%

Structure (SMILES) | survival
CN(C)C(=O)COc1ccc(S(=O)(=O)c2ccc(OCC(=O)N(C)C)cc2)cc1 | inactive: 109%
O=C(CSc1nc(=O)[nH]c2c1CCC2)NCc1ccc(Cl)cc1 | inactive: 67%
COc1ccc(N2CCN(C(=O)c3cc(NS(=O)(=O)c4ccc(F)cc4)ccn3)CC2)cc1 | inactive: 66%
CCOc1ccc(CCNC(=O)CCN2N=C(c3ccc(OC)cc3)CCC2=O)cc1OCC | inactive: 81%
CCCSCCCNC(=O)c1cc2n(n1)CCCN(Cc1ccc(C)cc1)C2=O | inactive: 89%
Cc1ccc(C)c(N2CCN(C(=O)CCn3c(=O)[nH]c4ccccc4c3=O)CC2)c1 | inactive: 97%
Cc1ccc(C)c(NC(=O)CSc2ncc3c(n2)-c2cc(Cl)ccc2N(Cc2ccccc2F)S3(=O)=O)c1 | inactive: 79%
CC1(C)CC(=O)c2cc(-c3nc(-c4ccc(Cl)cc4)cs3)c(=O)n(-c3ccc(F)cc3)c2C1 | inactive: 62%
Cc1cc(Cl)ccc1NC(=O)CCn1nc(C)c2c(C)n(-c3ccccc3)nc2c1=O | inactive: 72%
Cc1nc(SCC(=O)OCN2C(=O)c3ccccc3C2=O)n[nH]1 | inactive: 80%
Cc1cccc(OCCSc2nc3ccc(NC(=O)COc4ccccc4F)cc3s2)c1 | inactive: 58%
COc1ccc(-c2oc3ncn4nc(-c5ccccc5Cl)nc4c3c2-c2ccc(OC)cc2)cc1 | inactive: 73%
O=C(CCC1N=C2c3ccccc3N=C(SCc3ccccc3Cl)N2C1=O)N1CCN(c2ccccc2)CC1 (centres undefined) | active: 49%
COC(=O)CC1Oc2ccc(C)cc2-n2cc(-c3ccc(F)cc3)nc21 (centres undefined) | active: 56%
Cc1ccc2cc3c(N)[nH]nc3nc2c1 | inactive: 65%
Cc1cc(Cl)ccc1OCC(=O)N1CCC(c2nc3ccccc3o2)CC1 | inactive: 54%
CCn1c(=O)/c(=C2/Sc3ccc(Cl)cc3N2C)s/c1=C1/C(=O)N(C)N=C1C | inactive: 94%
Cc1ccc(CN(Cc2cccn2-c2nnc(N3CCCC3=O)s2)C(=O)Nc2ccc(F)cc2)cc1 | inactive: 111%
O=C(COc1ccc(F)cc1)Nc1ccc(C(=O)OCc2cc(=O)n3nc(C4CC4)sc3n2)cc1 | inactive: 86%
CCOc1ccc(NC(=O)N2CCC(c3ccc(C)cc3)C2)cc1 (centres undefined) | inactive: 66%
Cc1ccc(-n2nc(C(=O)Nc3ccc(Br)cc3C)c(=O)n(C)c2=O)cc1 | inactive: 99%
CCOc1ccc(NC(=O)c2sc3nc4c(cc3c2N)CN(Cc2ccccc2)CC4)cc1 | inactive: 73%
COC(=O)c1ccc(NC(=O)C(=O)NCCc2csc(-c3ccc(C(F)(F)F)cc3)n2)cc1 | inactive: 75%

Structure (SMILES) | survival
COc1ccccc1CNC(=O)CSCc1nc(-c2ccc(OC)c(OC)c2)oc1C | inactive: 71%
O=C1CSC(=S)N1C1CCS(=O)(=O)C1 (centres undefined) | inactive: 97%
COc1ccc(NC(=O)CN2CCN(CC(=O)Nc3ccccc3F)CC2)cc1OC | inactive: 84%
O=C(N=Nc1c(O)[nH]c2ccccc12)C1CC1c1ccccc1 (centres undefined) | active: 35%
O=S(=O)(c1ccc(F)cc1)N(Cc1nc(-c2ccccc2)no1)C1CCCCC1 | active: 45%
CCOC(=O)c1ccc(NC(=O)COc2cccc3c(=O)n(C)ccc23)cc1 | inactive: 81%
CCOc1ccc(N2C(=O)CC(N3CCCCC3CC)C2=O)cc1 (centres undefined) | active: 53%
CCc1nn(CC(=O)N2CCN(c3cccc(Cl)c3)CC2)c(=O)c2cc3sccc3n12 | inactive: 129%
Cc1ccccc1Cn1nc(C)c(NC(=O)c2cc(CC(C)C)on2)c1C | inactive: 56%
COc1cc(OC)c(NC(=O)Cn2c(SCc3ccccc3F)nc3cccnc32)cc1Cl | inactive: 69%
O=C1CC(c2cccc(Cl)c2Cl)c2cc3c(cc2N1)OCCO3 (centres undefined) | inactive: 64%
CC(=O)c1ccc(N2CCN(c3nc4ccccc4c4nc(-c5cccc(C)c5)nn34)CC2)cc1 | active: 41%
CCOc1ccc(NC(=O)Cn2nc(SC)c(S(=O)(=O)c3ccccc3)c2N)cc1 | inactive: 70%
COc1ccc(OC)c(NC(=O)CCn2cccn2)c1 | active: 47%
Cc1ccc(Cn2ccnc2SCC(=O)Nc2ccccc2C(F)(F)F)cc1 | inactive: 78%
CCC(=O)OC1CSc2nc3ccccc3n2C1 (centres undefined) | inactive: 76%
CCOC(=O)c1ccccc1NC(=O)NCc1cccn1Cc1ccc(F)cc1 | inactive: 82%
COc1ccc(NC(=O)CSc2nc(-c3ccccc3)[nH]c2-c2ccccc2)cc1OC | inactive: 49%
CN(C(=O)C1CCN(c2ncnc3c2nc2n3CCCCC2)CC1)c1ccccc1F | inactive: 76%
CC(=O)c1ccc(N2CCN(C(=O)c3cc4c(s3)-c3ccccc3OC4)CC2)cc1 | inactive: 65%
